The values below come from ChEMBL document CHEMBL4888484, “Replenishing the malaria drug discovery pipeline: Screening and hit evaluation of the MMV Hit Generation Library 1 (HGL1) against asexual blood stage Plasmodium falciparum ,using a nano luciferase reporter read-out” (2022).

SMILES strings stand for the structures. Out of some 150,000 compounds screened, about 540 (0.36%) showed an effect of 50% or more. The list shows a part of the results.

The assay relates to Plasmodium falciparum. In words: Primary screen in NF54 nanoGlo assay, in single point, at 2uM, 72h; a lower Z score goes with more inhibition. Particulars: timepoint 72 hour. Format: functional, Erythrocyte.
Usually % Inhibition stands for the drop in the measured response relative to a control, in per cent. Take `Cc1ncncc1C(=O)Nc1cccnc1C1CC1`: the “% Inhibition” value worked out at 10% and the Z score was -1.83.

In the case of `O=C(c1ccco1)N1CCN(C(=O)c2ccccc2NS(=O)(=O)c2ccc(F)c(F)c2)CC1`, the “% Inhibition” value is -12% and the Z score turned out to be 1.18.

With `CCn1c(-c2cc(NC(=O)C3CCCC3)[nH]n2)cc2ccc(OC)cc21`, the “% Inhibition” value is 6% and the Z score is reported as -0.93.

Regarding `COc1ccc(OCc2nc(CCN(C)C(=O)C3CCCC3)no2)cc1`, the “% Inhibition” value is listed as -5% and the Z score was 0.74.

On to `CC(C)c1ccc(-c2noc(CCC(=O)N3CCOC4CCCC43)n2)cc1` (centres undefined), for which the “% Inhibition” value is 5% and the Z score is on record as -0.74.

`CCn1cnnc1NC(=O)Cc1cc(Br)ccc1F`: the “% Inhibition” value is reported as -7% and the Z score was determined as 0.91.

On to `Cc1nc(N2CCCCCC2)c2sc(=S)n(C)c2n1`, for which the “% Inhibition” value is given as -3% and the Z score is reported as 0.37.

As to `OC[C@@]1(CCc2ccccc2)CCCN(Cc2ccc(F)cc2)C1`, the “% Inhibition” value is on record as 1% and the Z score was -0.06.

Regarding `CCn1c(CC2CCN(C(=O)Nc3cc(C)ccc3OC)CC2)nn(C)c1=O`, the “% Inhibition” value was -2% and the Z score is 0.24.

Regarding `Cc1cc(Cl)c(NC(=O)NCC(C)CC(C)O)c2cccnc12` (centres undefined), the “% Inhibition” value came out at 31% and the Z score is reported as -3.52.

In the case of `Cc1ccc(NC(=O)Cn2nc(-c3ccc(C)cc3)cc(NC(=O)c3ccccc3)c2=O)cc1`, the “% Inhibition” value is on record as 0% and the Z score is -0.05.

As for `Cc1noc(C)c1C(=O)N1CCCCC[C@H]1c1cc(C(F)(F)F)nn1C`, the “% Inhibition” value is on record as -2% and the Z score was determined as 0.27.

On to `O=C(Nc1nnc[nH]1)C1CC2CCC1O2` (centres undefined), for which the “% Inhibition” value is recorded as -1% and the Z score amounted to 0.11.

With `O=C1CN(CC(=O)Nc2ccc3c(c2)OC2(CCCCC2)O3)CCN1`, the “% Inhibition” value was 10% and the Z score is on record as -0.85.

With `O=C(Cc1ccc(-c2ccccc2)cc1)N[C@H]1C[C@H]2C(=O)NCC(=O)N2C1`, the “% Inhibition” value is -13% and the Z score came out at 1.55.

Consider `CC[C@H](NC(=O)c1ccc(C)n1C(F)F)c1ncnn1CC`, for which the “% Inhibition” value is -4% and the Z score was determined as 0.67.

Turning to `CCc1nc(CNC(=O)N2C[C@@H](C)N(CC(F)(F)F)[C@@H](C)C2)co1`, the “% Inhibition” value is -13% and the Z score was 1.64.

In the case of `Cc1cc(S(=O)(=O)[C@H]2CS(=O)(=O)C[C@@H]2N2CCC(C(N)=O)CC2)ccc1F`, the “% Inhibition” value amounted to 6% and the Z score is -0.74.

As for `O=C(CC1CCCC1)N1CC(N2C(=O)CNC2=O)C1`, the “% Inhibition” value is -11% and the Z score is on record as 2.16.

As to `O=C1Cc2cc(S(=O)(=O)N3CCN(C(=O)c4ccc(-c5nnco5)cc4)CC3)ccc2N1`, the “% Inhibition” value was -14% and the Z score stood at 2.65.

In the case of `CC1(C)CO[C@H](c2ccccc2Cl)CN1C(=O)c1ccnc(C#N)c1`, the “% Inhibition” value is 1% and the Z score is -0.28.

As to `Cc1nsc(N(C)Cc2ncc[nH]2)c1C#N`, the “% Inhibition” value is 9% and the Z score is -1.48.

`CN(Cc1cnc(-c2ccccc2)s1)C(=O)CCC1=NNC(=O)CC1`: the “% Inhibition” value is -4% and the Z score was 0.52.

For `CC(=O)N1CCC(C(NC(=O)c2cccs2)C(=O)N2CCCCC2C)CC1` (centres undefined), the “% Inhibition” value amounted to 4% and the Z score is -0.78.

On to `CCCC(O)CN(C)CC1CC(c2ccccc2)=NO1` (centres undefined), for which the “% Inhibition” value came to 4% and the Z score is -0.65.

For the compound `CCOc1ccccc1N(C(=O)c1cccc(F)c1)c1nc(C(F)(F)F)c(-c2ccc(F)cc2)s1`, the “% Inhibition” value was -9% and the Z score was 1.34.

With `CN1CCN(S(=O)(=O)c2cc(C(=O)O)cc(-c3ccc(CN)cc3)c2)CC1`, the “% Inhibition” value is -5% and the Z score turned out to be 0.56.

As to `N#Cc1ccnc(N2CC[C@H]3[C@H](CCC(=O)N3CCc3ccccc3)C2)c1`, the “% Inhibition” value is given as -14% and the Z score is on record as 1.39.

For the compound `CC(C)CC[C@@H](CCN1CCCC1)c1ccc(OC(C)C)cc1`, the “% Inhibition” value turned out to be 2% and the Z score is -0.36.

With `CCc1cnc(C)nc1-c1cccc(C(=O)NCCc2nnc(N)s2)c1`, the “% Inhibition” value was 5% and the Z score is given as -0.96.

In the case of `COc1ccc(S(=O)(=O)NC[C@@H](c2ccc(F)cc2)S(=O)(=O)c2cccs2)cc1Cl`, the “% Inhibition” value is listed as -1% and the Z score was found to be 0.16.

On to `c1cc(CN2CCCn3cncc3C2)n(-c2nccs2)c1`, for which the “% Inhibition” value is listed as -3% and the Z score turned out to be 0.6.

Regarding `COCCn1cncc1CN(C)Cc1cnn(C)c1C`, the “% Inhibition” value was -4% and the Z score was found to be 0.58.

`CC(C)(C)n1cc(CN2CCn3nncc3C2)cn1`: the “% Inhibition” value is on record as 7% and the Z score was -1.11.

As to `O=C(Nc1ccc(N2CCOCC2)c(S(=O)(=O)Nc2ccc(Cl)cc2)c1)c1nc(-c2ccccc2)n(-c2cccc(C(F)(F)F)c2)n1`, the “% Inhibition” value is listed as -3% and the Z score turned out to be 0.45.

`CC(C)OCCN1CCN(C(=O)[C@@H]2COc3ccccc32)CC1`: the “% Inhibition” value was -6% and the Z score was 0.94.

Regarding `CCn1cc(CN(C)C(=O)C[C@H]2COCCN2C(=O)N2CCCCC2)cn1`, the “% Inhibition” value was -3% and the Z score is 0.55.

As for `CC(=O)N[C@@H]1c2ccccc2C2(CCN(C(=O)c3n[nH]c4ccccc34)CC2)[C@H]1OCc1ccccn1`, the “% Inhibition” value is given as -2% and the Z score amounted to 0.28.

Turning to `Cc1ccc([C@H](C)N(C)C(=O)c2cn3c(n2)CCCC3)c(C)c1`, the “% Inhibition” value was -2% and the Z score came out at 0.22.

Turning to `Cc1nc2ccc(NC(=O)c3ccc4c(c3)OCO4)cc2s1`, the “% Inhibition” value is -4% and the Z score worked out at 0.7.

For the compound `CCCn1cc(CN2CCC3(CC2)Cc2cn(nn2)CCCOc2ccc(cc2)CCNC3=O)c(C)n1`, the “% Inhibition” value is given as 13% and the Z score was -1.83.

`O=C(CCN(Cc1ccco1)c1nc(-c2cccc(Br)c2)nc2ccccc12)Nc1ccc(F)cc1`: the “% Inhibition” value is -11% and the Z score is 1.54.
